# PMC2872910 (The Journal of Cell Biology, 2010)
# B1: She2 (L130Y)-1/2TAP (natural protein)
# chain: not shown
# Molecular target: the molecule itself
# Assay: SEC + other: velocity sedimentation in sucrose gradients
protein,measurement,value
B1,stoichiometry N,~2
